Results from PubChem BioAssay (NCATS).
Where “and” joins values, the source holds several entries; their conditions need not be identical. Equal entries are not always repeated. Inconclusive means that the source gave no clear call. Such entries were picked first, then a sample of the others. Potencies of inconclusive entries are doubtful fits and often do not repeat. A note “side channel” means that the fit belongs to a control or component signal, not to the main read-out. Calls of active or inactive are those of the source. Calls follow the shape of the dose curve; as a rule, active = well fitted inhibition curve with a large enough effect in the signal ratio, with a control signal flat (not every such curve was filed as active); inconclusive = small, poorly fitted or top-dose-only effect, or effect the other way, or a change in a side signal; inactive = no such curve, though single readings can be large or run the other way; the % refers to the signal ratio. *1 amine or outer side, *2 acyl side, *3 side chain or, on linkers, in order; H or OH if unused. Where a SMILES comes first, the peptide text is derived from it. Bridges are numbered along the chain shown (N, C = ends). Roman numbers before positions name the chains, in order. [ ]: non-standard residue; d: D form. Actinocin(9to1) = Cc1c2oc3c(C)ccc(C(=O)[*:1])c3nc-2c(C(=O)[*:2])c(N)c1=O; NMeV = CN[C@H](C(=O)O)C(C)C; Sar = CNCC(=O)O

What follows are compounds tested against Retinoic acid receptor RXR-alpha (Homo sapiens) (UniProt P19793) (assay: qHTS assay for small molecule antagonists of retinoid X receptor alpha signaling (AID 588546)). Conditions: HEK293T RXRa-UAS-bla, beta-lactamase ratio, antagonist mode.
Chain of UniProt P19793 (P19793 whole entry, looked up): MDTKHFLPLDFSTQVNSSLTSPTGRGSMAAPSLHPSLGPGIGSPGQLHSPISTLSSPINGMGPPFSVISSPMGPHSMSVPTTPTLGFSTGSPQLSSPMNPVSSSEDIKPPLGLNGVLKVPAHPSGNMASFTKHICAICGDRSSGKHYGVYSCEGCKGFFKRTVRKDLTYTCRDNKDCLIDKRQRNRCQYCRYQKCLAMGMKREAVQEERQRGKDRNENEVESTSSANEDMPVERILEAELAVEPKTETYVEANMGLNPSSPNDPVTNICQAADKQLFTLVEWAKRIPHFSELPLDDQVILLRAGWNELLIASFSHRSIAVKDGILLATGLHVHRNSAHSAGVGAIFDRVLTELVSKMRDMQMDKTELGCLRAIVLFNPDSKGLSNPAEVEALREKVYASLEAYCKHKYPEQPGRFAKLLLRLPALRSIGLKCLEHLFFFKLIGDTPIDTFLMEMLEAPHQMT
Text: NIH Chemical Genomics Center [NCGC] U.S. Environmental Protection Agency [EPA] National Institutes of Environmental Health Sciences [NIEHS] National Toxicology Program [NTP] NCGC Assay Overview The Retinoid X receptor (RXR), a nuclear hormone receptor is expressed in liver, spleen, placenta, epidermis, central nervous system. These receptors are able to form homo and heterodimers with other nuclear receptors and due to this heterodimerizing ability, RXR functions as master regulators producing diverse physiological effects. Three subtypes of RXR exist; alpha, beta and gamma. Retinoid X receptor alpha (RXR-alpha) has potential roles in metabolic signaling pathways, skin alopecia, dermal cysts, cardiac development, insulin sensitization etc. Therefore screening environmental chemicals on RXR-alpha signaling can be used for the studies focused on such therapeutic applications.
NCGC Assay Protocol Summary Using a beta-lactamase reporter-gene under control of Retinoid X receptor--alpha (RXR-alpha) response element, a cell-based assay [GeneBLAzer (RXR-alpha -UAS-bla assay developed by Invitrogen] was used to measure RXR-alpha ligands signaling. GeneBLAzer RXR-alpha -UAS-bla HEK293T cells were used with assay medium containing 2% charcoal-stripped FBS. The assay was performed in clear bottom black Greiner 1536-well plates. Library compounds were measured for their ability to inhibit the reporter gene activity. Compounds were screened in a titration series in 1536-well format. The fluorescence intensity (405 nm excitation, 460/530 nm emission) was measured using an EnVision plate reader. Data was normalized relative to 9-cis-retinoic acid control (500 nM, 100%), and DMSO only wells (basal, 0%). Concentration-response titration points for each compound were fitted to the Hill equation yielding concentrations of half-maximal inhibition (IC50) and maximal response (efficacy) values. qHTS protocol for RXR-alpha beta-lactamase assay in antagonist mode [Step] [Parameter] [Value] [Description] 1. Reagent; 5 uL; 2500 cells/well 2. Incubation; 37 C for 4 hrs 3. Compounds; 23 nL; 0.59 nM to 92 uM 4. Controls (DMSO); 23 nL 5. Agonist (Stimulator); 1uL; 9-cis-retinoic acid at 500 nM and 100 nM final concentrations 6. Incubation; 37 C for 18 hrs 7. Detection reagent; 1 uL of CCF4-dye 8. Incubation; RT for 2 hrs 9. Detection; Fluorescence; Envision plate reader
% is scaled to controls: 0 for no effect and ±100 for the full control effect; tags tell the direction and shape of the fitted curve or compound fluorescence and quenching.

Row | SMILES | max response | Potency
1 | CCc1cc(C(N)=S)ccn1 | inconclusive: -63.1% | –
2 | COc1cc(/C=C/C(=O)CC(=O)/C=C/c2ccc(O)c(OC)c2)ccc1O | – | inconclusive: 44.7 µM [side channel, rising, partial curve, poor fit]
3 | NC(=NCCCCCCN=C(N)/N=C(\N)Nc1ccc(Cl)cc1)/N=C(\N)Nc1ccc(Cl)cc1 | – | active: 39.8 µM
4 | CN(C)c1ccc(C(=C2C=CC(=[N+](C)C)C=C2)c2ccc(N(C)C)cc2)cc1 | inconclusive: -62.3% | inconclusive: 7.94 µM [inhibitor, partial curve]
5 | CC(CN1c2ccccc2Sc2ccccc21)N(C)C (stereo unspecified) | inconclusive: -44.5% | –
6 | CC/C(=C(/CC)c1ccc(O)cc1)c1ccc(O)cc1 | – | inconclusive: 35.5 µM [inhibitor, partial curve] and inconclusive: 20 µM [inhibitor, partial curve, poor fit]
7 | COc1cccc2c1C(=O)c1c(O)c3c(c(O)c1C2=O)C[C@@](O)(C(=O)CO)C[C@@H]3O[C@H]1C[C@H](N)[C@H](O)[C@H](C)O1 | – | active: 2 µM
8 | O=C(c1ccc(OCCN2CCCCC2)cc1)c1c(-c2ccc(O)cc2)sc2cc(O)ccc12 | – | active: 25.1 µM
9 | Nc1c2ccccc2nc2ccccc12 | – | inconclusive: 35.5 µM [side channel, rising, partial curve, poor fit]
10 | Oc1c(Cl)cc(Cl)c(Cl)c1Cc1c(O)c(Cl)cc(Cl)c1Cl | inconclusive: -50.6% | inconclusive: 4.47 µM [inhibitor, full curve]
11 | Cc1cc(=O)n(-c2ccccc2)n1C | inactive: 0.0131% | –
12 | CC(=O)Oc1ccc(C(c2ccc(OC(C)=O)cc2)c2ccccn2)cc1 | – | inconclusive: 35.5 µM [fluorescent, side channel, partial curve, poor fit]
13 | C[C@]12C[C@H](O)[C@H]3[C@@H](CCC4=CC(=O)CC[C@@]43C)[C@@H]1CC[C@@H]2C(=O)CO | inconclusive: -27.3% | –
14 | Nc1ncn([C@@H]2O[C@H](CO)[C@@H](O)[C@H]2O)c(=O)n1 | inconclusive: -18.8% | –
15 | Cc1cc2nc3c(=O)[nH]c(=O)nc-3n(C[C@H](O)[C@H](O)[C@H](O)CO)c2cc1C | – | inconclusive: 39.8 µM [side channel, rising, partial curve]
16 | COc1cccc2c1C(=O)c1c(O)c3c(c(O)c1C2=O)C[C@@](O)(C(C)=O)C[C@@H]3O[C@H]1C[C@H](N)[C@H](O)[C@H](C)O1 | – | active: 5.62 µM
17 | Oc1c(I)cc(Cl)c2cccnc12 | inconclusive: -64.2% | –

Row | SMILES | max response | Potency
18 | O=C1O[C@H]([C@@H](O)CO)C(O)=C1O | inconclusive: -2.9% | –
19 | N=C(N)c1ccc(OCCCCCOc2ccc(C(=N)N)cc2)cc1 | inconclusive: -0.613% and inconclusive: -49.7% | –
20 | Cc1c(O)cccc1C(=O)N[C@@H](CSc1ccccc1)[C@H](O)CN1C[C@H]2CCCC[C@H]2C[C@H]1C(=O)NC(C)(C)C | – | inconclusive: 5.01 µM [side channel, rising, full curve, poor fit]
21 | Nc1nc(N)c2nc(CNc3ccc(C(=O)NC(CCC(=O)O)C(=O)O)cc3)cnc2n1 (stereo unspecified) | inconclusive: -0.897% | –
22 | CCOc1ccc2c(c1)C(C)=CC(C)(C)N2 | inconclusive: -53.3% and inconclusive: -89% | –
23 | NCCO/C=C/[C@H](N)C(=O)O | inactive: -9.4% | –
24 | CCCCCCCC(=O)O | inactive: 18.1% and inactive: 2.05% | –
25 | CCCCC/C=C\C/C=C\CCCCCCCC(=O)O | – | inconclusive: 2.82 µM [fluorescent, side channel, partial curve, poor fit]
26 | CC/C(=C(\c1ccccc1)c1ccc(OCCN(C)C)cc1)c1ccccc1 | – | inconclusive: 15.8 µM [inhibitor, partial curve] and inconclusive: 22.4 µM [cytotoxic, side channel, full curve, poor fit]
27 | CC(=O)O[C@]1(C(C)=O)CC[C@H]2[C@@H]3C[C@H](C)C4=CC(=O)CC[C@]4(C)[C@H]3CC[C@@]21C | – | inconclusive: 35.5 µM [fluorescent, side channel, partial curve, poor fit] and inconclusive: 15.8 µM [inhibitor, partial curve, poor fit]
28 | CC#C[C@]1(O)CC[C@H]2[C@@H]3CCC4=CC(=O)CCC4=C3[C@@H](c3ccc(N(C)C)cc3)C[C@@]21C | inconclusive: -66% | –
29 | CC(=O)O[C@H]1C(=O)[C@@]2(C)[C@H]([C@H](OC(=O)c3ccccc3)[C@]3(O)C[C@H](OC(=O)[C@H](O)[C@@H](NC(=O)c4ccccc4)c4ccccc4)C(C)=C1C3(C)C)[C@]1(OC(C)=O)CO[C@@H]1C[C@@H]2O | – | inconclusive: 0.005 µM [inhibitor, full curve, poor fit]
30 | C[C@H](CCC(=O)O)[C@H]1CC[C@H]2[C@@H]3CC[C@@H]4C[C@H](O)CC[C@]4(C)[C@H]3C[C@H](O)[C@]12C | – | inconclusive: 31.6 µM [fluorescent, side channel, partial curve]
31 | CCCCCCCC/C=C\CCCCCCCC(=O)O | inactive: 31.8% and inactive: 3.81% | –
32 | C=C(CC)C(=O)c1ccc(OCC(=O)O)c(Cl)c1Cl | – | inconclusive: 39.8 µM [side channel, rising, partial curve, poor fit]
33 | Cc1c2oc3c(C)ccc(C(=O)N[C@@H]4C(=O)N[C@H](C(C)C)C(=O)N5CCC[C@H]5C(=O)N(C)CC(=O)N(C)[C@@H](C(C)C)C(=O)O[C@@H]4C)c3nc-2c(C(=O)N[C@@H]2C(=O)N[C@H](C(C)C)C(=O)N3CCC[C@H]3C(=O)N(C)CC(=O)N(C)[C@@H](C(C)C)C(=O)O[C@@H]2C)c(N)c1=O (I: T[dV]P[Sar][NMeV] / II: T[dV]P[Sar][NMeV]; ester I:1-I:C, II:1-II:C; linker I:N-II:N via Actinocin(9to1)) | – | active: 31.6 nM and active: 14.1 nM
34 | CN(Cc1cnc2nc(N)nc(N)c2n1)c1ccc(C(=O)N[C@@H](CCC(=O)O)C(=O)O)cc1 | – | inconclusive: 0.112 µM [inhibitor, full curve]
